From the antibiotic and cytotoxicity screens of Wong et al. (2023) come the findings set out here.

This is one part of the list.

One test deals with HSkMC. Nature of the test: cytotoxicity call (relative viability < 0.9). The conditions noted are these: 10 µM.
In a further test the test system is HepG2. The test is described as follows: cytotoxicity call (relative viability < 0.9). The conditions noted are these: 10 µM.
A further test has as its system S. aureus RN4220. Nature of the test: growth inhibition call (relative growth <= 0.2). The conditions noted are these: 50 µM.

As to `NS(=O)(=O)c1cc2c(cc1Cl)N=C(CSCc1ccccc1)NS2(=O)=O`, the cytotoxicity call with HSkMC and in the test on HepG2 was “inactive” each time. Moreover, the growth inhibition call in the test with S. aureus RN4220 was “inactive”.
Take `C[C@@H]1CN([C@@H](C)CO)S(=O)(=O)c2ccc(C#CC3(O)CCCC3)cc2O[C@H]1CN(C)C(=O)Nc1ccc(F)cc1`: the cytotoxicity call in the test with HSkMC and in the test with HepG2 was “inactive” in each case. In addition, in the test on S. aureus RN4220, the growth inhibition call was “inactive”.
For the compound `O=c1cc(-c2ccccc2)oc2cc(O)ccc12`, the cytotoxicity call in the test on HSkMC and in the test on HepG2 was “inactive” throughout. The growth inhibition call in the test with S. aureus RN4220 is “inactive”.
Take `Cc1ccc(S(=O)(=O)Nc2ccc3c(c2)C(=O)N([C@@H](C)CO)C[C@H](C)[C@@H](CN(C)Cc2ccccc2)OCCCC[C@@H](C)O3)cc1`: the cytotoxicity call with HSkMC and with HepG2 was “inactive” in each case. The growth inhibition call in the test on S. aureus RN4220 is “inactive”.
Consider `C[C@H]1CN([C@@H](C)CO)C(=O)Cc2cc(NC(=O)C3CC3)ccc2O[C@H]1CN(C)Cc1ccc(C(=O)O)cc1`, for which the cytotoxicity call with HSkMC and with HepG2 was “inactive” throughout. Besides, the growth inhibition call in the test on S. aureus RN4220 is “inactive”.
Consider `C[C@@H]1CCCCO[C@H](CN(C)CC2CC2)[C@H](C)CN([C@@H](C)CO)C(=O)c2cc(NS(=O)(=O)c3cn(C)cn3)ccc2O1`, for which the cytotoxicity call in the test with HSkMC and in the test on HepG2 was “inactive” each time. Moreover, the growth inhibition call in the test with S. aureus RN4220 was “inactive”.
Turning to `Cc1ccc(S(=O)(=O)N(C)C[C@H]2Oc3ccc(NC(=O)Nc4ccc(C(F)(F)F)cc4)cc3CC(=O)N([C@@H](C)CO)C[C@@H]2C)cc1`, in the test on HSkMC (human skeletal muscle cells), the cytotoxicity call is “inactive”. Further, the cytotoxicity call in the test with HepG2 is “active”. The growth inhibition call in the test on S. aureus RN4220 is “inactive”.
For `Cc1noc(C)c1NC(=O)Nc1cccc2c1O[C@@H](CN(C)Cc1ccc(-c3ccccc3)cc1)[C@@H](C)CN([C@@H](C)CO)C2=O`, the cytotoxicity call with HSkMC and in the test on HepG2 was “inactive” throughout. In the test on S. aureus RN4220, the growth inhibition call is “inactive”.
In the case of `O=c1[nH]c2ccccc2n2cnnc12`, the cytotoxicity call with HSkMC and in the test on HepG2 was “inactive” throughout. Besides, the growth inhibition call with S. aureus RN4220 is “inactive”.
On to `C[C@@H]1CCCCO[C@@H](CN(C)C(=O)C2CCCCC2)[C@H](C)CN([C@@H](C)CO)C(=O)c2cc(NC(=O)C3CCCCC3)ccc2O1`, for which the cytotoxicity call in the test with HSkMC and with HepG2 was “inactive” in each case. Besides, in the test with S. aureus RN4220, the growth inhibition call is “inactive”.
